PubChem BioAssay AID2147 (National Center for Advancing Translational Sciences (NCATS), 2009)
The campaign covered roughly 230,000 compounds. About 3,600 (1.6%) were called active. Inconclusive results, whose numbers are uncertain, are shown with a selection of clear calls. Calls follow the shape of the dose curve; as a rule, active = well fitted inhibition curve with a large enough effect (not every such curve was filed as active); inconclusive = small, poorly fitted or top-dose-only effect, or another doubt; inactive = no such curve, though single readings can be large or run the other way. Potencies of inconclusive entries are doubtful fits and often do not repeat.
Also: nearly all actives have a fitted effect of over 50% in size.
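For activity change, negative = inhibition in this document: 0% = wells with enzyme and -100% = buffer wells without enzyme.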
Potency is read from the fitted curve at half-maximal effect; tags tell the direction and shape of the fitted curve.

The compounds below were run against Lysine-specific demethylase 4E (Homo sapiens) (UniProt B2RXH2) (assay: qHTS Assay for Inhibitors of Human Jumonji Domain Containing 2E (JMJD2E)). Settings: JMJD2E catalytic domain, FDH-coupled NADH fluorescence (FDH is formaldehyde dehydrogenase); series mostly up to 57.1 µM; activity change, negative = inhibition: at the top concentration.
Sequence of UniProt B2RXH2 (B2RXH2 whole entry, looked up, the tested form may be a part): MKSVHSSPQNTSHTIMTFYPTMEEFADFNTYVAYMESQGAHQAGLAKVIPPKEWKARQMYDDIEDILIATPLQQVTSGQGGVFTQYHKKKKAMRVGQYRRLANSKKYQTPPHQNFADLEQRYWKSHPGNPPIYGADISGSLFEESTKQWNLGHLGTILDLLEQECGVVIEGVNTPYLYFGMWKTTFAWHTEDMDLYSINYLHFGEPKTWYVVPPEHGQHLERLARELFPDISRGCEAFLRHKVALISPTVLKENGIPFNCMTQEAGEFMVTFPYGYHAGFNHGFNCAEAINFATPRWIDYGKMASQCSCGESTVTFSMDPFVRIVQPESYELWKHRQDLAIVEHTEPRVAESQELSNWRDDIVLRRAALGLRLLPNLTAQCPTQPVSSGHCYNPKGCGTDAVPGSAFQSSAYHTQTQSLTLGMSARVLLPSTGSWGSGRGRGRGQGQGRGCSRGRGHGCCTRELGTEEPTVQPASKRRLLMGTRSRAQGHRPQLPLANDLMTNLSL
With O=[N+]([O-])c1cc(/C=N/n2cnnc2)ccc1N1CCCC1 the “activity change, negative = inhibition” value was inactive: -5.12%.
For NNC(=O)CS(=O)(=O)CS(=O)(=O)CC(=O)NN, the “activity change, negative = inhibition” value was inactive: 45.9%.
In the case of NCC[C@H](O)C(=O)N[C@H]1C[C@@H](N)[C@@H](O[C@H]2O[C@@H](CN)[C@@H](O)[C@@H](O)[C@@H]2O)[C@@H](O)[C@@H]1O[C@H]1O[C@@H](CO)[C@@H](O)[C@@H](N)[C@@H]1O, the “activity change, negative = inhibition” value is reported as inactive: 24.9% [at 25.5 µM].
Cn1c2ccccc2c2ncn(Cc3ccco3)c(=O)c21 was tested, and the Potency was inconclusive: 35.5 µM [inhibitor, partial curve].
In the case of CC(=O)Nc1ccc(C2=NNC(=NCC3CCCO3)SC2)cc1 (centres undefined), the Potency is reported as inconclusive: 31.6 µM [inhibitor, single point].
With CCOC(=O)c1c(-c2ccccc2)csc1NC(=O)C(C)NCCCN1CCOCC1 (centres undefined) the Potency was inconclusive: 25.1 µM [inhibitor, partial curve].
CCCCn1c(=O)nc2n(-c3ccc(C)cc3)c3ccccc3cc-2c1=O was tested, and the Potency was inconclusive: 3.55 µM [inhibitor, full curve].
For CCn1c2ccccc2c2cc(/C=N/n3c(C)nnc3C)ccc21, the “activity change, negative = inhibition” value was inactive: -2.88%.
For CN1CCN(Cc2nc3ccccc3c(=O)n2Cc2nc(-c3ccc([N+](=O)[O-])cc3)cs2)CC1, the “activity change, negative = inhibition” value was inactive: -3.55%.
With O=C(CSc1nc2ccccc2s1)NNC(=S)Nc1ccc(Br)cc1 the “activity change, negative = inhibition” value was inactive: 43.3%.
With CCOc1cc(C2C3=C(CCCC3=O)N(C)C3=C2C(=O)CCC3)cc(Cl)c1O the Potency was inconclusive: 31.6 µM [inhibitor, single point].
For COc1ccccc1NC(=O)c1cc2c(=O)n(C)c3ccccc3c2n1C, the Potency was inconclusive: 35.5 µM [inhibitor, single point].
With OC(COCC1COc2ccccc2O1)CN1CCN(c2ccccn2)CC1 (centres undefined) the “activity change, negative = inhibition” value was inactive: -8.49%.
With O=C(C1=NN(c2ccccc2)C2C(=O)N(c3ccccc3Cl)C(=O)C12)c1ccccc1 (centres undefined) the “activity change, negative = inhibition” value was inactive: -6.67%.
For Cn1cccc1/C=N/N1CCN(Cc2ccc(Cl)cc2)CC1, the Potency was inconclusive: 22.4 µM [inhibitor, single point].
With COc1ccc(-n2c(N)c(C(=O)NCc3ccco3)c3nc4ccccc4nc32)c(OC)c1 the Potency was inconclusive: 31.6 µM [inhibitor, partial curve].
With N#CC1=C(N)Oc2c(oc(CO)cc2=O)C1c1ccsc1 (centres undefined) the Potency was inconclusive: 39.8 µM [inhibitor, single point].
CCCCCCn1c(SCC(=O)OC)nc2c1c(=O)[nH]c(=O)n2C was tested, and the “activity change, negative = inhibition” value was inactive: 2.28%.
With Cc1cccc(-c2cc3nc4c(c(N5CCCC(O)C5)n3n2)CCC4)c1 (centres undefined) the Potency was inconclusive: 39.8 µM [inhibitor, single point].
With N#CC(C#N)=C1C=CC=CN1/C(=C\c1ccccc1)C(=O)c1cccs1 the “activity change, negative = inhibition” value was inactive: -0.584%.
In the case of Cc1cc(C)nc(NS(=O)(=O)c2ccc(NC(=O)c3cc(-c4ccccc4)nc4ccccc34)cc2)n1, the Potency is reported as inconclusive: 35.5 µM [inhibitor, single point].
CCCN1CCN(c2nc(-c3cccs3)nc3ccccc23)CC1 was tested, and the Potency was inconclusive: 35.5 µM [inhibitor, single point].
COc1ccc(-n2c(CN3CCN(Cc4ccccc4)CC3)nc3ccc([N+](=O)[O-])cc3c2=O)c(OC)c1 was tested, and the Potency was inconclusive: 25.1 µM [inhibitor, single point].
In the case of COc1cccc(-c2ccc(C#N)c(SCC(=O)NCCc3ccc(Cl)cc3)n2)c1, the Potency is reported as inconclusive: 22.4 µM [inhibitor, partial curve].
For C/C(=N\Nc1nnc(-c2ccccc2)c(-c2ccccc2)n1)c1cccc([N+](=O)[O-])c1, the “activity change, negative = inhibition” value was inactive: -17.6%.
In the case of CCOC(=O)c1cnn(-c2nc(-c3cccc(F)c3)cs2)c1C(F)(F)F, the Potency is reported as inconclusive: 25.1 µM [inhibitor, partial curve].
With Clc1ccc(C2=CC(c3ccco3)n3ncnc3N2)cc1 (centres undefined) the Potency was inconclusive: 25.1 µM [inhibitor, partial curve].
In the case of COc1ccc2[nH]c3c(Cl)ncnc3c2c1, the Potency is reported as inconclusive: 25.1 µM [inhibitor, partial curve].
For O=C(CCC1CCCN(c2ncccn2)C1)NCc1ccccc1F (centres undefined), the Potency was inconclusive: 25.1 µM [inhibitor, single point].
In the case of C/C(=N\NC(=O)c1ccc(-c2ccccc2)cc1)C1C(=O)c2ccccc2C1=O, the Potency is reported as inconclusive: 35.5 µM [inhibitor, single point].
With O=[N+]([O-])c1ccccc1/C=N\N1CCN(c2ccccc2)CC1 the “activity change, negative = inhibition” value was inactive: -5.43%.
Nc1nnc(SCC(=O)Nc2sc3c(c2C(=O)c2ccccc2)CCCC3)s1 was tested, and the “activity change, negative = inhibition” value was inactive: 2.71%.
With COc1cc(/C=N/NC(=O)c2nonc2C)ccc1O the “activity change, negative = inhibition” value was inactive: 0.445%.
c1ccc(CN(Cc2ccccc2)c2ncnc3c2nnn3Cc2ccccc2)cc1 was tested, and the Potency was inconclusive: 35.5 µM [inhibitor, single point].
Oc1ccc(Cl)cc1C=Nc1ccc2c3c(cccc13)CC2 was tested, and the Potency was inconclusive: 28.2 µM [inhibitor, partial curve].
For O=C1OCCN1C(=O)[C@H]1[C@H](c2ccc([N+](=O)[O-])cc2)C(c2cccc(Cl)c2)=NN1c1ccccc1, the Potency was inconclusive: 39.8 µM [inhibitor, single point].
For O=C(N/N=C/c1ccc(Br)o1)c1ccc2c(c1)OCCO2, the Potency was inconclusive: 39.8 µM [inhibitor, single point].
With COc1ccc2nc3oc(C(=O)Nc4ccc(OC)c(OC)c4)cc3cc2c1 the Potency was inconclusive: 28.2 µM [inhibitor, partial curve].
COc1ccc(Nc2nc(C(=O)NCc3ccco3)cs2)cc1 was tested, and the “activity change, negative = inhibition” value was inactive: -20%.
In the case of Cc1cccc(-c2cc(C(=O)NCc3ccccn3)c3ccccc3n2)c1, the Potency is reported as inconclusive: 25.1 µM [inhibitor, partial curve].
S=c1[nH]nc(-c2cccs2)n1Cc1ccccc1 was tested, and the Potency was inconclusive: 25.1 µM [inhibitor, partial curve].
For CN1CCN(CCCCOc2ccccc2-c2ccccc2)CC1, the Potency was inconclusive: 35.5 µM [inhibitor, single point].
Cc1nnc(SCc2cc([N+](=O)[O-])cc3c2OCOC3)n(N)c1=O was tested, and the “activity change, negative = inhibition” value was inactive: -3.52%.
COc1cc2[nH]c(=O)n(CCC(=O)N3CCN(Cc4ccc5c(c4)OCO5)CC3)c(=O)c2cc1OC was tested, and the Potency was inconclusive: 31.6 µM [inhibitor, single point].
For O=C(NO)C1CC2C=CC1C2 (centres undefined), the Potency was inconclusive: 39.8 µM [inhibitor, single point].
CC1(C)CC(=O)C(Br)=C(O)C1 was tested, and the Potency was inconclusive: 35.5 µM [inhibitor, single point].
With Cc1ccc(NC(=S)N(CCCN2CCCC2)Cc2cccn2Cc2ccc(Cl)cc2)cc1C the “activity change, negative = inhibition” value was inactive: 5.22%.
COC(CNC(=O)c1ccc2c(c1)nc(C)n2-c1cccc(F)c1)OC was tested, and the “activity change, negative = inhibition” value was inactive: 6.31%.
With C/C=C1\C(OC2OC(CO)C(O)C(O)C2O)OC=C(C(=O)OC)C1CC(=O)OCC1C(C)C(OC(=O)CC2C(C(=O)OC)=COC(OC3OC(CO)C(O)C(O)C3O)/C2=C\C)CC1C(CO)CO (centres undefined) the Potency was inconclusive: 31.6 µM [inhibitor, single point].
For CCCCNC(=S)N(C)N=C1CCC(c2ccccc2)CC1 (centres undefined), the “activity change, negative = inhibition” value was inactive: -2.74%.
In the case of O=C(C1=C[C@H](c2csc3ccccc23)C[C@H](OCc2ccc(CO)cc2)O1)N1CCN(Cc2ccccc2)CC1, the Potency is reported as inconclusive: 28.2 µM [inhibitor, single point].
In the case of Cc1nc2ccccc2n1CCC(=O)O, the “activity change, negative = inhibition” value is reported as inactive: 1.36%.
In the case of COc1nc(-c2ccccc2)ccc1-c1noc(-c2ccccc2F)n1, the Potency is reported as inconclusive: 3.16 µM [inhibitor, partial curve].
O=C(NCc1ccco1)c1ccc(-c2ccc(Cl)cc2)o1 was tested, and the Potency was inconclusive: 28.2 µM [inhibitor, single point].
O=C(O)c1cc2c(s1)-c1ccccc1CC2 was tested, and the Potency was inconclusive: 0.794 µM [inhibitor, partial curve].
COc1ccc(OC)c(S(=O)(=O)n2nnc3ccccc32)c1 was tested, and the “activity change, negative = inhibition” value was inactive: -2.91%.
For Cn1c(=O)n(C)c2cc(/C=N/N=C3/NC(=O)C(CC(=O)O)S3)ccc21 (centres undefined), the Potency was inconclusive: 35.5 µM [inhibitor, single point].
With COc1ccc(/C=C/C(=O)CC(O)(c2ccccc2)C(F)(F)F)cc1 (centres undefined) the “activity change, negative = inhibition” value was inactive: -7.4%.
With COC(=O)c1[nH]c2ccccc2c1NC(=O)CN1CCCCCC1 the Potency was inconclusive: 35.5 µM [inhibitor, single point].
For NC1=NC(=O)/C(=C/c2c(OS(=O)(=O)c3ccc(Cl)cc3)ccc3ccccc23)S1, the Potency was inconclusive: 31.6 µM [inhibitor, single point].
In the case of COC(=O)C1=C(C)NC(=S)NC1c1ccc(-c2ccccc2C(=O)OC)o1 (centres undefined), the Potency is reported as inconclusive: 31.6 µM [inhibitor, single point].
With COC(CNC(=O)c1cnn2c(C)c(Cc3ccccc3)c(C)nc12)OC the Potency was inconclusive: 31.6 µM [inhibitor, partial curve].
For COc1ccccc1-c1nnc2n1N=C(C)CS2, the “activity change, negative = inhibition” value was inactive: 2.33%.
For Cc1ccc2cc(CCNC(=O)c3ccc4c(c3)OCO4)c(=O)[nH]c2c1C, the Potency was inconclusive: 35.5 µM [inhibitor, single point].
In the case of CCn1c(/C=C2/C(=O)N(C)c3ccccc32)nc2ccccc2c1=O, the Potency is reported as inconclusive: 4.47 µM [inhibitor, single point].
In the case of O=S(=O)(N/N=C/c1ccc(OC2CSC2)cc1)c1ccccc1, the “activity change, negative = inhibition” value is reported as inactive: -0.311%.
O=C1CCCc2nc3c(cc21)C(O)Oc1ccccc1-3 (centres undefined) was tested, and the Potency was inconclusive: 31.6 µM [inhibitor, partial curve].
With CCOc1cc(NC(=O)CCl)c(OCC)cc1NC(=O)CCl the Potency was inconclusive: 31.6 µM [inhibitor, single point].
For COCCCNc1nc2ccccc2nc1NS(=O)(=O)c1ccc(C)cc1, the Potency was inconclusive: 35.5 µM [inhibitor, partial curve].
